# In the supplement of paper PMC8728848:
# Some of the results follow.
# Legend:
# Experiment in all cases: glycan array binding signal (z-score within array); higher = stronger binding
# Conditions in all cases: glycan notation: IUPAC condensed, linker removed
# [1] = target: Neu5Ac(a2-3)Gal(b1-3)GalNAc(b1-3)Gal(b1-4)GlcNAc
# Outline: (§1)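 Glycan array data were curated from 3228 arrays in the Consortium for Functional Glycomics database and kept only where the protein sequence was available. Glycan names were converted to IUPAC-condensed notation, and columns mapping to the same glycan were averaged. The binding signal is a within-array Z-score, averaged across arrays of the same protein sequence at different concentrations or buffers and across linkers. Negative Z-scores can be read as non-binding.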
# [2] = target: Neu5Ac(a2-3)Gal(b1-3)GalNAc(b1-4)[Neu5Ac(a2-3)]Gal(b1-4)Glc
# Outline: as §1
# [3] = target: Neu5Ac(a2-3)Gal(b1-3)GalNAc6S
# Outline: as §1
# [4] = target: Neu5Ac(a2-3)Gal(b1-3)GlcNAc
# Outline: as §1
# [5] = target: Neu5Ac(a2-3)Gal(b1-3)GlcNAc6S
# Outline: as §1
# [6] = target: Neu5Ac(a2-3)Gal(b1-3)[Fuc(a1-4)]GlcNAc
# Outline: as §1
# [7] = target: Neu5Ac(a2-3)Gal(b1-3)[Fuc(a1-4)]GlcNAc(b1-3)Gal(b1-4)[Fuc(a1-3)]GlcNAc
# Outline: as §1
# [8] = target: Neu5Ac(a2-3)Gal(b1-3)[Neu5Ac(a2-3)Gal(b1-4)]GlcNAc
# Outline: as §1
# [9] = target: Neu5Ac(a2-3)Gal(b1-3)[Neu5Ac(a2-6)]GalNAc
# Outline: as §1
# [10] = target: Neu5Ac(a2-3)Gal(b1-4)Glc
# Outline: as §1
# [11] = target: Neu5Ac(a2-3)Gal(b1-4)GlcNAc
# Outline: as §1
# [12] = target: Neu5Ac(a2-3)Gal(b1-4)GlcNAc(b1-2)Man(a1-3)[Neu5Ac(a2-3)Gal(b1-4)GlcNAc(b1-2)Man(a1-6)]Man(b1-4)GlcNAc(b1-4)GlcNAc
# Outline: as §1
# [13] = target: Neu5Ac(a2-3)Gal(b1-4)GlcNAc(b1-3)Gal(b1-4)GlcNAc
# Outline: as §1
# [14] = target: Neu5Ac(a2-3)Gal(b1-4)GlcNAc(b1-3)Gal(b1-4)GlcNAc(b1-3)Gal(b1-4)GlcNAc
# Outline: as §1
# [15] = target: Neu5Ac(a2-3)Gal(b1-4)GlcNAc(b1-3)Gal(b1-4)[Fuc(a1-3)]GlcNAc
# Outline: as §1
# [16] = target: Neu5Ac(a2-3)Gal(b1-4)GlcNAc6S
# Outline: as §1
# [17] = target: Neu5Ac(a2-3)Gal(b1-4)[Fuc(a1-3)]GlcNAc
# Outline: as §1
# [18] = target: Neu5Ac(a2-3)Gal(b1-4)[Fuc(a1-3)]GlcNAc(b1-3)Gal
# Outline: as §1
# [19] = target: Neu5Ac(a2-3)Gal(b1-4)[Fuc(a1-3)]GlcNAc(b1-3)Gal(b1-4)GlcNAc
# Outline: as §1
# [20] = target: Neu5Ac(a2-3)Gal(b1-4)[Fuc(a1-3)]GlcNAc(b1-3)Gal(b1-4)[Fuc(a1-3)]GlcNAc(b1-3)Gal(b1-4)[Fuc(a1-3)]GlcNAc
# Outline: as §1
# [21] = target: Neu5Ac(a2-3)Gal(b1-4)[Fuc(a1-3)]GlcNAc6S
# Outline: as §1
# [22] = target: Neu5Ac(a2-3)Gal6S(b1-4)GlcNAc
# Outline: as §1
# [23] = target: Neu5Ac(a2-3)Gal6S(b1-4)[Fuc(a1-3)]GlcNAc
# Outline: as §1
# [24] = target: Neu5Ac(a2-3)GalNAc
# Outline: as §1
# [25] = target: Neu5Ac(a2-3)GalNAc(b1-4)GlcNAc
# Outline: as §1
# [26] = target: Neu5Ac(a2-3)[GalNAc(b1-4)]Gal(b1-4)Glc
# Outline: as §1
# [27] = target: Neu5Ac(a2-3)[GalNAc(b1-4)]Gal(b1-4)GlcNAc
# Outline: as §1
# [28] = target: Neu5Ac(a2-3)[Neu5Ac(a2-6)]GalNAc
# Outline: as §1
# [29] = target: Neu5Ac(a2-6)Gal
# Outline: as §1
# [30] = target: Neu5Ac(a2-6)Gal(b1-4)Glc
# Outline: as §1
# [31] = target: Neu5Ac(a2-6)Gal(b1-4)GlcNAc
# Outline: as §1
# [32] = target: Neu5Ac(a2-6)Gal(b1-4)GlcNAc(b1-3)Gal(b1-4)GlcNAc
# Outline: as §1
# [33] = target: Neu5Ac(a2-6)Gal(b1-4)GlcNAc(b1-3)Gal(b1-4)[Fuc(a1-3)]GlcNAc(b1-3)Gal(b1-4)[Fuc(a1-3)]GlcNAc
# Outline: as §1
# [34] = target: Neu5Ac(a2-6)Gal(b1-4)GlcNAc6S
# Outline: as §1
# [35] = target: Neu5Ac(a2-6)GalNAc
# Outline: as §1
# [36] = target: Neu5Ac(a2-6)GalNAc(b1-4)GlcNAc
# Outline: as §1
# [37] = target: Neu5Ac(a2-8)Neu5Ac
# Outline: as §1
# [38] = target: Neu5Ac(a2-8)Neu5Ac(a2-3)Gal(b1-4)Glc
# Outline: as §1
# [39] = target: Neu5Ac(a2-8)Neu5Ac(a2-3)[GalNAc(b1-4)]Gal(b1-4)Glc
# Outline: as §1
# [40] = target: Neu5Ac(a2-8)Neu5Ac(a2-8)Neu5Ac
# Outline: as §1
# [41] = target: Neu5Ac(a2-8)Neu5Ac(a2-8)Neu5Ac(a2-3)Gal(b1-4)Glc
# Outline: as §1
# [42] = target: Neu5Ac(a2-8)Neu5Ac(a2-8)Neu5Ac(a2-3)[GalNAc(b1-4)]Gal(b1-4)Glc
# Outline: as §1
# [43] = target: Neu5Ac(a2-8)Neu5Ac(a2-8)Neu5Ac(a2-8)Neu5Ac(a2-3)[GalNAc(b1-4)]Gal(b1-4)Glc
# Outline: as §1
# [44] = target: Neu5Ac(b1-6)GalNAc
# Outline: as §1
# [45] = target: Neu5Ac(b2-6)Gal(b1-4)GlcNAc
# Outline: as §1
# [46] = target: Neu5Ac9Ac(a2-6)Gal(b1-4)GlcNAc
# Outline: as §1
# [47] = target: Neu5Gc(a2-3)Gal(b1-3)GlcNAc
# Outline: as §1
# [48] = target: Neu5Gc(a2-3)Gal(b1-3)[Fuc(a1-4)]GlcNAc
# Outline: as §1
# [49] = target: Neu5Gc(a2-3)Gal(b1-4)Glc
# Outline: as §1
# [50] = target: Neu5Gc(a2-3)Gal(b1-4)GlcNAc
# Outline: as §1
# [51] = target: Neu5Gc(a2-3)Gal(b1-4)[Fuc(a1-3)]GlcNAc
# Outline: as §1
# [52] = target: Neu5Gc(a2-6)Gal(b1-4)GlcNAc
# Outline: as §1
# [53] = target: Neu5Gc(a2-6)GalNAc
# Outline: as §1
binder,measurement,setting,value
MPA (Maclura pomifera) (protein) GVTFDDGAYTGIREINFEYNSETAIGGLRVTYDLNGMPFVAEDHKSFITGFKPVKISLEFPSEYIVEVSGYVGKVEGYTVIRSLTFKTNKQTYGPYGVTNGTPFSLPIENGLIVGFKGSIGYWLDYFSIYLSLNGPNGKSQSIIVGPWGDRVTN,glycan array binding signal (z-score),[1],-0.247
same,glycan array binding signal (z-score),[2],-0.246
same,glycan array binding signal (z-score),[3],-0.237
same,glycan array binding signal (z-score),[4],-0.242
same,glycan array binding signal (z-score),[5],-0.236
same,glycan array binding signal (z-score),[6],-0.205
same,glycan array binding signal (z-score),[7],-0.216
same,glycan array binding signal (z-score),[8],-0.245
same,glycan array binding signal (z-score),[9],-0.245
same,glycan array binding signal (z-score),[10],-0.245
same,glycan array binding signal (z-score),[11],-0.247
same,glycan array binding signal (z-score),[12],-0.245
same,glycan array binding signal (z-score),[13],-0.247
same,glycan array binding signal (z-score),[14],-0.25
same,glycan array binding signal (z-score),[15],-0.246
same,glycan array binding signal (z-score),[16],-0.248
same,glycan array binding signal (z-score),[17],-0.217
same,glycan array binding signal (z-score),[18],-0.217
same,glycan array binding signal (z-score),[19],-0.219
same,glycan array binding signal (z-score),[20],-0.215
same,glycan array binding signal (z-score),[21],-0.193
same,glycan array binding signal (z-score),[22],-0.166
same,glycan array binding signal (z-score),[23],-0.2
same,glycan array binding signal (z-score),[24],0.805
same,glycan array binding signal (z-score),[25],-0.241
same,glycan array binding signal (z-score),[26],-0.246
same,glycan array binding signal (z-score),[27],-0.247
same,glycan array binding signal (z-score),[28],-0.248
same,glycan array binding signal (z-score),[29],-0.245
same,glycan array binding signal (z-score),[30],-0.239
same,glycan array binding signal (z-score),[31],-0.245
same,glycan array binding signal (z-score),[32],-0.246
same,glycan array binding signal (z-score),[33],-0.231
same,glycan array binding signal (z-score),[34],-0.245
same,glycan array binding signal (z-score),[35],-0.243
same,glycan array binding signal (z-score),[36],-0.243
same,glycan array binding signal (z-score),[37],-0.237
same,glycan array binding signal (z-score),[38],-0.234
same,glycan array binding signal (z-score),[39],-0.249
same,glycan array binding signal (z-score),[40],-0.244
same,glycan array binding signal (z-score),[41],-0.244
same,glycan array binding signal (z-score),[42],-0.251
same,glycan array binding signal (z-score),[43],-0.249
same,glycan array binding signal (z-score),[44],-0.245
same,glycan array binding signal (z-score),[45],-0.247
same,glycan array binding signal (z-score),[46],-0.233
same,glycan array binding signal (z-score),[47],-0.241
same,glycan array binding signal (z-score),[48],-0.217
same,glycan array binding signal (z-score),[49],-0.245
same,glycan array binding signal (z-score),[50],-0.245
same,glycan array binding signal (z-score),[51],-0.222
same,glycan array binding signal (z-score),[52],-0.252
same,glycan array binding signal (z-score),[53],-0.245
